The values that follow come from patent US8304419B2, “Chemical compounds” (priority 2007, dated 2012).

SMILES strings stand for the structures. Structures can show the parent of a compound that is named as a salt.

Experiment in all cases: microbe, parasite or virus in culture
Assay [1] relates to HIV-1 Y181C RT mutant. To be noted: Human immunodeficiency virus 1, HeLa, read-out: Y181C activity level, HeLa-CD4-LTR-β-gal cells, Y181C virus.
Assay [2] relates to HIV-1 V106A RT mutant. To be noted: Human immunodeficiency virus 1, HeLa, read-out: V106A activity level, HeLa-CD4-LTR-β-gal cells, V106A virus.
The subject of assay [3] is HIV-1 K103N RT mutant. To be noted: Human immunodeficiency virus 1, HeLa, read-out: K103N activity level, HeLa-CD4-LTR-β-gal cells, K103N virus.

In the case of `COc1n[n+]([O-])cc2cc(C(=O)NCc3ccc(Cl)c(Oc4cc(Cl)cc(C#N)c4)c3F)[nH]c12` [Example 82, N-({4-chloro-3-[(3-chloro-5-cyanophenyl)oxy]-2-fluorophenyl}methyl)-7-(methyloxy)-1H-pyrrolo[2,3-d]pyridazine-2-carboxamide 5-oxide trifluoroacetate], the IC50 in assay [1], in assay [2] and in assay [3] was over 1000 nM each time.

With `N#Cc1cc(Cl)cc(Oc2c(Cl)ccc(CNC(=O)c3cn(C(c4ccccc4)(c4ccccc4)c4ccccc4)cn3)c2F)c1` [Example 83, N-({4-chloro-3-[(3-chloro-5-cyanophenyl)oxy]-2-fluorophenyl}methyl)-1-(triphenylmethyl)-1H-imidazole-4-carboxamide], the IC50 in assay [1], in assay [2] and in assay [3] was over 1000 nM in each case.

On to `N#Cc1cc(Cl)cc(Oc2c(Cl)ccc(CNC(=O)c3c[nH]cn3)c2F)c1` [Example 84, N-({4-chloro-3-[(3-chloro-5-cyanophenyl)oxy]-2-fluorophenyl}methyl)-1H-imidazole-4-carboxamide trifluoroacetate], for which the IC50 in assay [1], in assay [2] and in assay [3] was 10 to 1000 nM in each case.

Regarding `N#Cc1cc(Cl)cc(Oc2c(Cl)ccc(CNC(=O)c3ccccn3)c2F)c1` [Example 85, N-({4-chloro-3-[(3-chloro-5-cyanophenyl)oxy]-2-fluorophenyl}methyl)-2], the IC50 in assay [1], in assay [2] and in assay [3] was 10 to 1000 nM throughout.

Turning to `CSc1ncccc1C(=O)NCc1ccc(Cl)c(Oc2cc(Cl)cc(C#N)c2)c1F` [Example 86, N-({4-chloro-3-[(3-chloro-5-cyanophenyl)oxy]-2-fluorophenyl}methyl)-2-(methylthio)-3-pyridinecarboxamide trifluoroacetate], the IC50 in assay [1] is 10 to 1000 nM; in assay [2], over 1000 nM; in assay [3], 10 to 1000 nM.

As for `N#Cc1cc(Cl)cc(Oc2c(Cl)ccc(CNC(=O)c3cnccn3)c2F)c1` [Example 87, N-({4-chloro-3-[(3-chloro-5-cyanophenyl)oxy]-2-fluorophenyl}methyl)-2-pyrazinecarboxamide trifluoroacetate], the IC50 in assay [1] was 10 to 1000 nM; in assay [2] it was over 1000 nM; in assay [3] it was 10 to 1000 nM.

Consider `N#Cc1cc(Cl)cc(Oc2c(Cl)ccc(CNC(=O)c3csc(-c4ccncc4)n3)c2F)c1` [Example 88, N-({4-chloro-3-[(3-chloro-5-cyanophenyl)oxy]-2-fluorophenyl}methyl)-2-(4-pyridinyl)-1,3-thiazole-4-carboxamide trifluoroacetate], for which the IC50 in assay [1], in assay [2] and in assay [3] was 10 to 1000 nM in each case.

Consider `N#Cc1cc(Cl)cc(Oc2c(Cl)ccc(CNC(=O)c3ccncc3)c2F)c1` [Example 89, N-({4-chloro-3-[(3-chloro-5-cyanophenyl)oxy]-2-fluorophenyl}methyl)-4-pyridinecarboxamide trifluoroacetate], for which the IC50 in assay [1], in assay [2] and in assay [3] was 10 to 1000 nM in each case.

Regarding `N#Cc1cc(Cl)cc(Oc2c(Cl)ccc(CNC(=O)c3csnn3)c2F)c1` [Example 90, N-({4-chloro-3-[(3-chloro-5-cyanophenyl)oxy]-2-fluorophenyl}methyl)-1,2,3-thiadiazole-4-carboxamide], the IC50 in assay [1] was 10 to 1000 nM; in assay [2] it was over 1000 nM; in assay [3], 10 to 1000 nM.

Take `Cc1nnsc1C(=O)NCc1ccc(Cl)c(Oc2cc(Cl)cc(C#N)c2)c1F` [Example 91, N-({4-chloro-3-[(3-chloro-5-cyanophenyl)oxy]-2-fluorophenyl}methyl)-4-methyl-1,2,3-thiadiazole-5-carboxamide]: the IC50 in assay [1], in assay [2] and in assay [3] was 10 to 1000 nM in each case.

`CS(=O)(=O)c1ccc(C(=O)NCc2ccc(Cl)c(Oc3cc(Cl)cc(C#N)c3)c2F)cc1` [Example 92, N-({4-chloro-3-[(3-chloro-5-cyanophenyl)oxy]-2-fluorophenyl}methyl)-4-(methylsulfonyl)benzamide]: the IC50 in assay [1], in assay [2] and in assay [3] was 10 to 1000 nM throughout.

As to `N#Cc1cc(Cl)cc(Oc2c(Cl)ccc(CNC(=O)c3ccno3)c2F)c1` [Example 93, N-({4-chloro-3-[(3-chloro-5-cyanophenyl)oxy]-2-fluorophenyl}methyl)-5-isoxazolecarboxamide], the IC50 in assay [1], in assay [2] and in assay [3] was 10 to 1000 nM in each case.

For the molecule `N#Cc1cc(Cl)cc(Oc2c(Cl)ccc(CNC(=O)c3cccnc3)c2F)c1` [Example 94, N-({4-chloro-3-[(3-chloro-5-cyanophenyl)oxy]-2-fluorophenyl}methyl)-3-pyridinecarboxamide trifluoroacetate], the IC50 is 10 to 1000 nM in assay [1], over 1000 nM in assay [2] and 10 to 1000 nM in assay [3].

Take `N#Cc1cc(Cl)cc(Oc2c(Cl)ccc(CNC(=O)c3cc[nH]n3)c2F)c1` [Example 95, N-({4-chloro-3-[(3-chloro-5-cyanophenyl)oxy]-2-fluorophenyl}methyl)-1H-pyrazole-3-carboxamide]: the IC50 is 10 to 1000 nM in assay [1], over 1000 nM in assay [2] and 10 to 1000 nM in assay [3].

As for `Cc1nn(-c2ccccc2)nc1C(=O)NCc1ccc(Cl)c(Oc2cc(Cl)cc(C#N)c2)c1F` [Example 96, N-({4-chloro-3-[(3-chloro-5-cyanophenyl)oxy]-2-fluorophenyl}methyl)-5-methyl-2-phenyl-2H-1,2,3-triazole-4-carboxamide trifluoroacetate], the IC50 in assay [1], in assay [2] and in assay [3] was over 1000 nM each time.

With `Cc1nc2ccccn2c1C(=O)NCc1ccc(Cl)c(Oc2cc(Cl)cc(C#N)c2)c1F` [Example 97, N-({4-chloro-3-[(3-chloro-5-cyanophenyl)oxy]-2-fluorophenyl}methyl)-2-methylimidazo[1,2-a]pyridine-3-carboxamide trifluoroacetate], the IC50 is 10 to 1000 nM in assay [1], over 1000 nM in assay [2] and 10 to 1000 nM in assay [3].

In the case of `N#Cc1cc(Cl)cc(Oc2c(Cl)ccc(CNC(=O)c3csc(-c4cccnc4)n3)c2F)c1` [Example 98, N-({4-chloro-3-[(3-chloro-5-cyanophenyl)oxy]-2-fluorophenyl}methyl)-2-(3-pyridinyl)-1,3-thiazole-4-carboxamide trifluoroacetate], the IC50 in assay [1], in assay [2] and in assay [3] was 10 to 1000 nM each time.

On to `N#Cc1cc(Cl)cc(Oc2c(Cl)ccc(CNC(=O)c3snnc3-c3ccccc3)c2F)c1` [Example 99, N-({4-chloro-3-[(3-chloro-5-cyanophenyl)oxy]-2-fluorophenyl}methyl)-4-phenyl-1,2,3-thiadiazole-5-carboxamide], for which the IC50 in assay [1], in assay [2] and in assay [3] was over 1000 nM in each case.

With `N#Cc1cc(Cl)cc(Oc2c(Cl)ccc(CNC(=O)c3cn[nH]c3)c2F)c1` [Example 100, N-({4-chloro-3-[(3-chloro-5-cyanophenyl)oxy]-2-fluorophenyl}methyl)-1H-pyrazole-4-carboxamide trifluoroacetate], the IC50 in assay [1], in assay [2] and in assay [3] was 10 to 1000 nM throughout.

As to `CSc1ncc(Cl)c(C(=O)NCc2ccc(Cl)c(Oc3cc(Cl)cc(C#N)c3)c2F)n1` [Example 101, 5-chloro-N-({4-chloro-3-[(3-chloro-5-cyanophenyl)oxy]-2-fluorophenyl}methyl)-2-(methylthio)-4-pyrimidinecarboxamide], the IC50 in assay [1], in assay [2] and in assay [3] was over 1000 nM throughout.

`CN(C)CCCOc1ccc2[nH]c(C(=O)NCc3ccc(Cl)c(Oc4cc(Cl)cc(C#N)c4)c3F)cc2c1` [Example 102, N-({4-chloro-3-[(3-chloro-5-cyanophenyl)oxy]-2-fluorophenyl}methyl)-5-{[3-(dimethylamino)propyl]oxy}-1H-indole-2-carboxamide]: the IC50 in assay [1] is under 10 nM; in assay [2], 10 to 1000 nM; in assay [3], under 10 nM.

`N#Cc1cc(Cl)cc(Oc2c(Cl)ccc(CNC(=O)c3cc4cc(OCCN5CCOCC5)ccc4[nH]3)c2F)c1` [Example 103, N-({4-chloro-3-[(3-chloro-5-cyanophenyl)oxy]-2-fluorophenyl}methyl)-5-{[2-(4-morpholinyl)ethyl]oxy}-1H-indole-2-carboxamide]: the IC50 was under 10 nM in assay [1], 10 to 1000 nM in assay [2] and under 10 nM in assay [3].

With `CN1CCCC1CCOc1ccc2[nH]c(C(=O)NCc3ccc(Cl)c(Oc4cc(Cl)cc(C#N)c4)c3F)cc2c1` (stereo not drawn) [Example 104, N-({4-chloro-3-[(3-chloro-5-cyanophenyl)oxy]-2-fluorophenyl}methyl)-5-{[2-(1-methyl-2-pyrrolidinyl)ethyl]oxy}-1H-indole-2-carboxamide], the figures for the IC50 in assay [1], in assay [2] and in assay [3] were under 10 nM, 10 to 1000 nM and under 10 nM, respectively.

Regarding `CN(C)CCOc1ccc2[nH]c(C(=O)NCc3ccc(Cl)c(Oc4cc(Cl)cc(C#N)c4)c3F)cc2c1` [Example 105, N-({4-chloro-3-[(3-chloro-5-cyanophenyl)oxy]-2-fluorophenyl}methyl)-5-{[2-(dimethylamino)ethyl]oxy}-1H-indole-2-carboxamide], the IC50 in assay [1] was under 10 nM; in assay [2], 10 to 1000 nM; in assay [3], under 10 nM.

For `CC(O)CCOc1ccc2[nH]c(C(=O)NCc3ccc(Cl)c(Oc4cc(Cl)cc(C#N)c4)c3F)cc2c1` (stereo not drawn) [Example 106, N-({4-chloro-3-[(3-chloro-5-cyanophenyl)oxy]-2-fluorophenyl}methyl)-5-[(3-hydroxybutyl)oxy]-1H-indole-2-carboxamide], the IC50 in assay [1] was under 10 nM; in assay [2], 10 to 1000 nM; in assay [3], under 10 nM.
